Experimental data reported in PubChem BioAssay (NCATS).
The inconclusive results got no clear call from the source; some entries with a clear call stand among them for comparison. For part of these data: Where the call is inconclusive, the potency comes from a doubtful curve fit. Activity calls are given as the source filed them. Unless noted, calls come from the whole dose curve; as a rule, active = well fitted curve in the direction sought with a large enough effect; inconclusive = small, poorly fitted or top-dose-only effect, or another doubt; inactive = no such curve, though single readings can be large; an effect the other way counts as inactive or inconclusive.

Tests used:
[1] = qHTS to identify inhibitors of the type 1 interferon - major histocompatibility complex class I in skeletal muscle: primary screen against the NCATS Mechanism Interrogation Plate v5.0 (MIPE) Libary (AID 1347411); settings: iHSKM cells + IFN-b, HiBiT-tagged MHC-I luminescence, 24 h; activity change, negative = inhibition: at 45.8 µM (top of the series); note: nearly all actives have a fitted effect of over 65% in size; note: potency is the fitted concentration of half-maximal effect;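 for activity change, negative = inhibition: plate controls were vehicle for no effect and reference inhibitor for full effect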
How it was run: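 IFN-beta-driven (4 ng/ml) HLA-B-HiBit expression in CRISPR-tagged C25cl48 myoblasts; compounds 11-pt, 1:3, max 46 uM, 24 hr exposure; lytic NanoLuc complementation luminescence.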

[2] = AP1 Signaling Pathway (AID 357; active = well fitted curve in either direction with a large enough effect, not every such curve was filed as active; inconclusive = small, poorly fitted or top-dose-only effect, or another doubt; note: top concentration of the series differs between compounds; % is set by controls: 0 for no effect and ±100 for the full control effect); settings: ME-180 AP-1-bla reporter, EGF-induced, beta-lactamase ratio, 5 h; at 7.69 µM (top of the series) unless noted
How it was run: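 AP-1-bla ME-180 cells with beta-lactamase reporter under AP-1 response element, stimulated with EC50 EGF; compounds titrated, 5 hours at 37 degrees Celsius. CCF4 read at 460/530 nm ratio; positive and negative modulators judged by AC50.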

[3] = Stat Signaling Pathway (AID 446; active = well fitted curve in either direction with a large enough effect, not every such curve was filed as active; inconclusive = small, poorly fitted or top-dose-only effect, or another doubt;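 note: ME-180 cervical cancer cells given 40 pM IL-6 alongside compound; SIE-controlled beta-lactamase reporter measured as 460/530 nm FRET emission ratio; top concentration of the series differs between compounds; % is set by controls: 0 for no effect and ±100 for the full control effect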); settings: ME-180 (cervical carcinoma) SIE beta-lactamase reporter, IL-6 stimulated, 5 h; at 7.69 µM (top of the series) unless noted
How it was run: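 Emission at 460 and 530 nm (excitation 405 nm) reports SIE-controlled beta-lactamase in ME-180 cells. Cells received compound with 40 pM IL-6 for 5 hrs at 37 C; data scaled between 300 pM IL-6 and 125 nM JAK-inhibitor controls.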

[4] = target: Mitogen-activated protein kinase 10 (Mus musculus) (UniProt Q61831); experiment: JNK3 AlphaScreen Assay (AID 530; active = well fitted curve in either direction with a large enough effect, not every such curve was filed as active; inconclusive = small, poorly fitted or top-dose-only effect, or another doubt;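 note: kinase came from lysate of stimulated human HepG2 cells; signal reports phosphorylation of biotinylated GST-cJun 1-79 at Ser73 with 10 µM ATP; potency is the fitted concentration of half-maximal effect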); settings: JNK3 lysate, c-Jun phosphorylation; activity change, negative = inhibition: at 57.1 µM (top of the series)
How it was run: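 Biotinylated GST-cJun(1-79) served as substrate for JNK3 in HepG2 lysates stimulated with IL-1beta and TNF-alpha. ATP was 10 uM final, pH 7.6. Ser73 phosphorylation was quantified by AlphaScreen (680 nm excitation).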

[5] = target: Cytochrome P450 2D6 (Homo sapiens) (UniProt P10635); experiment: qHTS Assay for Inhibitors and Substrates of Cytochrome P450 2D6 (AID 891);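 note: luciferin methyl ether substrate demethylated by CYP2D6 with NADPH regeneration; potency is the fitted concentration of half-maximal effect; nearly all actives have a fitted effect of over 60% in size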
How it was run: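 Luminescent read-out of luciferin formed by 5 nM human CYP2D6 demethylating 30 uM Luciferin-ME EGE (Km level) over 60 min at room temperature after NADPH regeneration addition. Data normalized to full inhibition by 1.43 uM quinidine.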

[6] = qHTS Assay for Identification of Small Molecule Antagonists for NFkB Signaling Pathway (AID 895; active = well fitted inhibition curve with a large enough effect in the signal ratio, with a control signal flat, not every such curve was filed as active; inconclusive = small, poorly fitted or top-dose-only effect, or effect the other way, or a change in a side signal; the % refers to the signal ratio; note: potency is the fitted concentration of half-maximal effect); settings: NFkB beta-lactamase reporter cells, FRET ratio 460/530, stimulated with 10 pM TNF alpha; activity change, negative = inhibition: at 38.3 µM (top of the series)
How it was run: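 NFkB-bla ME-180 cervical carcinoma cells with beta-lactamase reporter under NFkB response element; compounds added, then TNF alpha at 10 pM final (EC50), 5 h at 37 C. LiveBLAzer substrate 2 h, room temperature; emission 460/530 nm at 405 nm excitation.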

[7] = qHTS Assay for Identification of Small Molecule Agonists for NFkB Signaling Pathway (AID 928; calls by dose curve); settings: NFkB beta-lactamase reporter cells, blue/green ratio
How it was run: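 Activators were sought with TNF alpha co-added at 10 pM final (its EC50) to beta-lactamase reporter cells. Cells were plated in OPTI MEM with 0.5% FBS and exposed for 5 hrs at 37 C. The FRET substrate ratio was read at 460 and 530 nm.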

[8] = qHTS for differential inhibitors of proliferation of Plasmodium falciparum line 3D7 (AID 1876);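 note: parasite growth measured after three days of culture; 0% = vehicle wells and -100% = reference inhibitor wells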
[9] = qHTS for differential inhibitors of proliferation of Plasmodium falciparum line D10 (AID 1877);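 note: parasites grown with compound for 72 h before DNA staining; plate controls were vehicle wells for no effect and reference inhibitor wells for full effect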
[10] = qHTS for differential inhibitors of proliferation of Plasmodium falciparum line W2 (AID 1883); settings: Potency: Plasmodium falciparum W2 proliferation inhibition;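 note: potency is the fitted concentration of half-maximal effect; parasites grown with compound for 72 h before lysis and staining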
[11] = qHTS Assay for Modulators of Human Peripheral Myelin Protein 22 (PMP22) Expression/Activity (AID 1967; active = well fitted curve in the direction sought with a large enough effect in the signal ratio; inconclusive = small, poorly fitted or top-dose-only effect, or effect the other way, or a change in a side signal; inactive = no such curve, though single readings can be large or run the other way; the % refers to the signal ratio; note: potency is the fitted concentration of half-maximal effect); settings: Cell-based PMP22 reporter, dual-color luciferase ratio, mouse Pmp22 promoter in mouse Schwann cells; activity change (ratio): at 115 µM (top of the series), 0% = compound-free control cells
How it was run: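 Mouse MSC80 Schwann line, Pmp22 promoter–CBG68 reporter, EF-alpha–CBR internal control. 24h compound exposure, 37 °C/5% CO2, DMEM + 10% FBS. Readout: corrected green/red luminescence ratio, normalized to untreated cells; concentration-response curves fitted and classified.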

[12] = Validation screen for small molecules that induce DNA re-replication in MCF 10A normal breast cells (AID 463097); note: 0% is about no effect; nearly all actives have a fitted effect of over 60% in size
How it was run: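 250 MCF 10A cells/well; compound pin-transferred; 48 hr, 37 C, 5% CO2; Hoechst 40 min; imaged 405/500-530 nm. Hits = more high-intensity nuclei.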

[13] = Quantitative high throughput screen for delayed death inhibitors of the malarial parasite plastid, 48 hour incubation (AID 488752); note: % is set by controls: 0 for no effect and ±100 for the full control effect; nearly all actives have a fitted effect of over 65% in size
How it was run: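 Cultures: infected erythrocytes at final 2% hematocrit and 0.1% parasitemia in Albumax-supplemented RPMI. Parasites express integrated firefly luciferase. Incubation with compound lasts 48 h before luminescent detection of remaining reporter activity.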

[14] = Nrf2 qHTS screen for inhibitors: Validation (AID 493153; active = well fitted inhibition curve with a large enough effect in the main read-out, with a control signal flat, not every such curve was filed as active; inconclusive = small, poorly fitted or top-dose-only effect, or effect the other way, or a change in a side signal; inactive = no such curve, though single readings can be large or run the other way; note: potency is the fitted concentration of half-maximal effect)
How it was run: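 In this counterscreened reporter format, each well gives two signals: CellTiter-Fluor fluorescence for cytotoxicity and ARE-luciferase luminescence for Nrf2 function. A549 ARE_Fluc cells in 5% FBS OPTI-MEM were exposed to compound titrations for 18-24 h.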

[15] = qHTS for Inhibitors of ATXN expression: Validation of Cytotoxic Assay (AID 588349); note: % is set by controls: 0 for no effect and ±100 for the full control effect
How it was run: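 Toxicity of test compounds toward HEK293 cells is scored from cellular ATP content measured by CellTiter Glo. Cells receive titrated doses and incubate 72 hr at 37 degrees C beforehand.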

[16] = qHTS for Inhibitors of ATXN expression: Validation (AID 588378); note: potency is the fitted concentration of half-maximal effect; nearly all actives have a fitted effect of over 75% in size
How it was run: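 Cells: HEK293-ATXN2-FFLuc, phenol-red free DMEM, 2 h attachment. Compound pin-transfer, 24 h, 37 degrees C, 5% CO2. CellTiter-Fluor 30 min, Ex405/Em525; Bright-Glo 5 min, luminescence 2 s exposure.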

[17] = qHTS to identify inhibitors of the type 1 interferon - major histocompatibility complex class I in skeletal muscle: primary screen against the NCATS LOPAC collection (AID 1347405);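 note: human myoblasts with HiBiT tag on endogenous HLA-B stimulated by IFN-beta; lytic HiBiT luminescence reporting HLA-B protein level; potency is the fitted concentration of half-maximal effect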
How it was run: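 IFN-beta-stimulated (4 ng/ml) HLA-B HiBiT knock-in myoblasts, compound-treated 24 hrs up to 46 uM final; signal via LgBiT complementation and furimazine luminescence.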

[18] = Primary qHTS for small molecule stabilizers of the endoplasmic reticulum resident proteome: Secreted ER Calcium Modulated Protein (SERCaMP) assay (AID 1508630); settings: SH-SY5Y GLuc-SERCaMP (Gaussia luciferase released on ER calcium loss) secretion, thapsigargin, luminescence; activity change, negative = inhibition: at 38.4 µM (top of the series) unless noted; note: potency is the fitted concentration of half-maximal effect
How it was run: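 The SH-SY5Y reporter protocol was run at 3 concentrations up to 38.3 uM (primary) or 11 concentrations (follow-up): 16 h compound, 100 nM thapsigargin for 4 h, then extracellular luciferase luminescence.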
Tags give direction and shape of the fitted curve or compound fluorescence and quenching.

UniProt P10635, sequence (P10635 whole entry, looked up): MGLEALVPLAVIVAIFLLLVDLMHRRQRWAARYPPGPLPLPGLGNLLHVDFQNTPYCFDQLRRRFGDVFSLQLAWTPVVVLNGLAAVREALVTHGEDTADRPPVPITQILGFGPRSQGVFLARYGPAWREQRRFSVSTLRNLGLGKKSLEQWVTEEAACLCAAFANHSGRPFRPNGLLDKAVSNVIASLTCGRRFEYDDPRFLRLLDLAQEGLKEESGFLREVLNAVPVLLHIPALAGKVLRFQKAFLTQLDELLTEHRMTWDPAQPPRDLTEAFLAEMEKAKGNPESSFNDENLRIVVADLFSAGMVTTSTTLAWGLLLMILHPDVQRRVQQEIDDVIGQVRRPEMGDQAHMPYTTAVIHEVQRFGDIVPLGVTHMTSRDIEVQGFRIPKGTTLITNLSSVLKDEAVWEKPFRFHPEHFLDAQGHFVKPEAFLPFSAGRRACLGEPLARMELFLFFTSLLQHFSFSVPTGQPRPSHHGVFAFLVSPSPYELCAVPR

CCC(=O)NC[C@H](Cc1ccc(OCCc2nc(-c3ccccc3)oc2C)cc1)N/C(C)=C\C(=O)c1ccc(C(F)(F)F)cc1
inconclusive: Potency [1] 26.2 µM [inhibitor, partial curve]

CCC1CCCCN1C(=O)n1ncc(C(O)(c2ccccc2)c2ccccc2)n1 (stereo unspecified)
inactive: Potency [1]

CNCCNS(=O)(=O)c1cccc2cnccc12
inconclusive: activity change, negative = inhibition [2] -53% [inhibitor] [at 38 µM] | activity, negative = inhibition [3] -55.5% [inhibitor] [at 38 µM] | Potency [4] 0.00251 µM [inhibitor, full curve, poor fit] | Potency [5] 5.01 µM [inhibitor, full curve] | Potency [7] 10 µM [inhibitor, partial curve] | Potency [10] 12.6 µM [inhibitor, partial curve] | Potency [11] 67.5 µM [activator, partial curve] | Potency [14] 11.6 µM [inhibitor, partial curve, poor fit] | Potency [16] 22.4 µM [inhibitor, partial curve, poor fit] | Potency [17] 25.1 µM [inhibitor, partial curve] | Potency [18] 2.24 µM [inhibitor, full curve, poor fit]
active: Potency [6] 10 µM
inactive: Potency [8] | Potency [9] | Potency [12] | Potency [13] | Potency [15]

COc1cc(C(=O)NC(N)=Nc2ccc(C)c(NC(=O)c3ccc(-c4ccccc4)cc3)c2)cc(OC)c1OC
inactive: Potency [1]

CC[C@]12C=CCN3CC[C@@]4(c5cc([C@@]6(C(=O)OC)CC7C[C@@H](C(C)(F)F)CN(Cc8c6[nH]c6ccccc86)C7)c(OC)cc5N(C)[C@H]4[C@@](O)(C(=O)OC)[C@@H]1OC(C)=O)[C@@H]32 (stereo partly specified)
inconclusive: Potency [1] 1.31 µM [inhibitor, full curve, poor fit]
